Sequences and labels used below:
B1: CPEB3 Ribozyme (parent)
chain: UAACAGGGGGCCACAGCAGAAGCGUUCACGUCGCAGCCCCUGUCAGAUUCUGGUGAAUCUGCGAAUUCUGCUGUAUAUCUC

Read counts are not given, so values of variants with three or more changes are uncertain.

The variants in this data set derive from B1. Briefly: self-cleavage, relative activity (ratio to wild type); higher = more cleavage; in vitro, sequencing. The method in brief: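 Barcoded CPEB3 ribozyme mutants, produced by rounds of error-prone PCR, self-cleaved while being transcribed with T7 RNA polymerase for 5 hours at 37°C and during a subsequent 15 min DNase I step before EDTA was added. Sequencing of template-switched cDNA on Illumina gave cleaved and total reads, and DNA sequencing assigned barcodes to variants. Each variant's relative activity is its cleaved/total read fraction divided by the unmutated ribozyme's fraction, averaged across three batches. A variant needed a minimum of 5 reads.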
On to UAACAAGGGGCCACAGCAGAAGCGUUCACGUCGCAGCCCCUGUCAGAUUCUGGUGAUUCUGCGAAUUCUGCUGUUUAUCUC, for which the self-cleavage was determined as 0.05.
On to UAACAAGGGGGCACAGCAGAAGCGUUCACGUCGCGGCAUCUGUCAGAUCCUGGUGAAUCUGCGAAUUCUGCUGUAUAUCUG, for which the self-cleavage turned out to be 0.28.
Turning to UAACAAGGGGCCACAGCAGAAGCGUUCACGUCGCAGCCCCUGUCAGGUCCUGGUGAAUCUGCGAAUUCUGCUGUAUAUCUC, the self-cleavage came to 0.26.
For UAACAAGGGGCCACAGCAGAAGCGUUCACGUCGCUGCCCCUGUCAGAUUCUGGUGACUCUGCGAAUUCUGCUGUAUAUCUC the value was 0.05.
Turning to UAACAAGGGGCCACAGCAGAGGCGUUCACGUCGCAGCCCCUGUCAGAUCCUGGUGGAUCUGCGAAUUCUGCUGUAUACCUC, the self-cleavage was found to be 0.08.
As to UAACAAGGGGCCACAGCAGAAGCGUUCACGUCGCUGCCCCUGUCAGAUUCUGGUGAAUCUGCGAAUCCUGCUGUAUAUCUC, the self-cleavage is 0.
As for UAACAAGGGGCCACAGCAGAAGCGUUCACGUCGGAGCCCCUGUCAGAUUCUGGUGGAUCUGCGAACUCUGCUGUAUAUCUC, the self-cleavage was determined as 0.2.
For UAACAAGGGGCCACAGCAGAAGCGUUCUCGUCUCAGCCCCUGUCAGACUCUGGUGAAUCUGCGAAUUCUGCUGUAUAUCUC, the self-cleavage was determined as 0.06.
In the case of UAACAAGGGGCCACAGCAGAAGCGUUCAUGUCGCAGCCCCUGUCAGAUUCUGGUGAGUCUGCGGAUUCUGCAGCAUAUCUC, the self-cleavage was 0.05.
Take UAACAAGGGGCUACAGCAGAAGCGUUCACGUCGCAGCCCCUGUCAGAUCCUGGUGAAUCUGCGCAUUCUGCUGUAUAUCUC: the self-cleavage turned out to be 0.06.
For the variant UAACAAGGGGCCACAGCAGAAGCGUUCUCGUCGCAGCCCCAGUCUGAUUCUCGUGAAUCUGCGAAUUCUGCUGUAUAUCUC, the self-cleavage came out at 0.11.
Next, UAACAAGGGGCCACAGCAGAAGCGUUCACGUCGCAGCCCCUGUCGGAUUCUGGUGAAUCUGCGAAUUCUGCCGUAUAUCUC: 0.52.
With UAACAAGGGGCCACAGCAGAAGCGUUCACGUAGCAGCCCCUGUCAGAUUCUGGUGAAUCUGCGUAUUCUGCUGUAUAUCUC, the self-cleavage amounted to 0.09.
As to UAACAAGGGGCCACAGCAGAAGCGUUCACGUCGCAGCUCCGCUCAGAUUCUGGUGAAUCUGCGAAUUCUGCUGUAUAUCUC, the self-cleavage was 0.09.
On to UAACAAGGGGCCACAGCAGAAGCGUUUACGUCGCAGCCCCUGUCAGAUUCUGGUGAAUCUGCGAACUCAGCUGUUUAUCUC, for which the self-cleavage came out at 0.1.
For UAACAAGGGGCCACAGCAGAGGCGUUCACGUCGCAGCCCCUGUCAGAUCCUGGUGAAUCUGCCAAUCCUGCUGUAUAUCUC the value was 0.07; for UAACAAGGGGCCACAGCAGAAGCGUUCGCGUCGCAGCCCCUGUCAGAUUCUGGUGUAUCUGCGAAUCCUGCUGUAUAUCUC, 0.1; for UAACAAGGGGCCACAGCAGAAGCGUUCACGUCGCAGCGCCGGUCAGAUUCUGGUGAAUCUGCGAAUUCUGCUGUAUAUCUC, 0.28.
For UAACAAGGGGCUACAGCAGGGGCGUUCACGUCGCAGCCCCUGUCAGACUCUGGUGAAUCUGCGAAUUCUGCUGAAUAUCUC the value was 0.06; for UAACAAGGGGCCACAGCAGAAGUGUUCACGUCGCAGCCCCGGUCAGAUCCUGGUGAAUCUGCGAAUUCAGCUGUAUAUCUC, 0.06; for UAACAAGGGGCCAUAGCAGAAGCGUUCACGUCGCAGCCCCUGUCAGAUUCUGGCGAAUCAGCGAAUUCUGCUGUAUAUCUC, 0.07.
For UAACAAGGGGCCACAGCAGAGGCGUUCACGUCGCAGCCCCAGUCAGAUUCUGGUGAAUCUGCGGAUUCUGCUGUAUAUCUC, the self-cleavage is 0.07.
Take UAACAAGGGGCCACAGCAGAAGCGUUCAUGUCGCAGCCCCUGUCAGAUUCUGGUGAAUCUGCGAAUUCUGCUGUAUACCUC: the self-cleavage was 0.27.
For UAACAAGGGGCCACAGCAGAAGCGUUCUCGUCGCAGCCCCUGUCUGAUUCUGGAGAAUCUGCGUAUUCUGCUUUAUAUCUC, the self-cleavage was determined as 0.06.
Regarding UAACAAGGGGCCACAGCAGAUGCGUUCACGUCGCAGCCCCUGUCAGACUCUGGUGAAUCUGCGAAUUCUGCUGUUUAUCUC, the self-cleavage came to 0.05.
Regarding UAACAAGGGGCCACAGCAGAAGCGUUCACGUCGCUGCCCCUGUCAAAUUCUGGUGUAUCUGCGAAUUCUGCUGUAUAUCUC, the self-cleavage is 0.05.
For UAACAAGGGGCCACAGCAGAAGCGUUCACGUUGCAGCCCCUGUCGGAUCCUGGUGGAUCUGCGAAUUCUGCUGUAUAUCUC the value was 0.19; for UAACAAGGGGCCACAGCAGAAGCGUUCACGUCGCAGCCCCUGUCAGUUCCUGGUGAAUCUGCGAAUUCAGCGGUAUAUCUC, 0.16.
As to UAACAAGGGGCCACAGCAGAAGCGUUCACGUCGCGGCCCCUGUCAGAUUCUGGUGAUUCUGCGAAUUCUGCUGUAUAUCUC, the self-cleavage is 0.43.
With UAACAAGGGGCCACAGCAGAAGCGUUCACGUCGCAGCCCCUGUCAGAUUCUGGUGAGUCUGCGAACUCUGCUGUAUAUCGC, the self-cleavage worked out at 0.11.
On to UAACAAGGGGCUACAGCAGAGGCGUUCGCGUCGCAGCCCCUGUCAGAUUCUGGUGAAUCUGCGAAUUCUGCUGUAUAACUC, for which the self-cleavage came out at 0.05.
As for UAACAAGGGGCCACAGAAGAAGCGUUCAUGUCGCAGCCCCUGUCAGAUUCUGGUGAAUCUGCGAAUUCUGCUGUAUAUCUC, the self-cleavage worked out at 0.18.
On to UAACAAGGGGCCACAGCAGAAGCGUUCACGUCGCGGCCCCUGUCAGAUUCUGGUGAAUCUGCGAAUUCUGCUGUAUAUCCC, for which the self-cleavage turned out to be 0.56.
For UAACAAGGGGCCACAGCAGAAGUGUUCACGUCGCAGCCCCUGUCAGAUUCAGGUGAGUCUGCGGAUUCUGCUGUAUAUCUC, the self-cleavage was determined as 0.08.
As to UAACAAGGGGCCACAGCAGAAGCGUUCACGUCGGAGCCCCUGUCAGAUUCUGGUGAAUCUGCGAACUCUGCUGUAUAUCUC, the self-cleavage worked out at 0.18.
As for UAACAAGGGGCCACAGCAGAAGCGUUCACGUCGCGGCCCCUGUCAGACACUGGUGAGUCUGCGAAUUCUGCUGUAUAUCUC, the self-cleavage was found to be 0.53.
Regarding UAACAAGGGGCUACAACAGAAGCGUUCACGUCGCAGCCCCCGUCAGAUUCUGGUGAAUCUGCGAAUUCUGCCGUAUAUCUC, the self-cleavage came out at 0.26.
For the variant UAACAAGGGGGCACAGCAGAAGCGUUCACGUCGCAGCCCCUGUCAGAUUCUGGUGAAUCUGCGAUUUCUGCUGUAUAUCUC, the self-cleavage turned out to be 0.34.
Turning to UAACAAGGGGCCAUAGCCGAAGCGUUCACGUCGCAGCCCAUGUCAGAUCCUGGUGAAUCUGCGGAUUCUGCUGUAUGUCUC, the self-cleavage is 0.03.
For UAACAAGGGGCCACAGCAGAAGCGUUCGCGUCGCAGCUCCCGUCAGAUUCUGGUGAAUCUGCGAAUUCUGCUGUAUAUCUC the value was 0.29.
For UAACAAGGGGCGACAGCAGAAGCGUUCAGGUCGCAGCCCCUGUCAGAUUCUGGUGAAUCUGCGAAUUCUGCUGUAUAUCUC, the self-cleavage was determined as 0.24.
Turning to UAACAAGGGGCCACAGCAGAAGCGUUCACGUCGCAGUCCCUGUCGGAUUCUGGUGAAUCUGCGAAUUCUGCUGUAUAUCUC, the self-cleavage stood at 0.18.
For UAACAAGGGGUCACAGCAGAAGCGUUCACGUCGCAGCCCCUGUCAGAUUCUGGCGAAUCUGCGAAUUCUGCUGUUUAUCUC, the self-cleavage was determined as 0.06.
Regarding UAACAAGGGGCCACAGCAGAAGCGUUCGCGUCGCAGCCCCUGCCAGAUUCUGGUGUAUCUGCAGAUUCUGCUGUAUACCUC, the self-cleavage turned out to be 0.14.
UAACAAGGGGUCACAGCAGAAGCGUUCACGUCGCAGCCCCUGUCAGAUUCUGGUGUAUCUGCGAAUCAUGCUGUAUAUCUC: the self-cleavage came to 0.21.
Regarding UAACAAGGGGCCACAGCAGAAGCGUUCGCGUCGCGGCCCCUGUCAGAUUCUGGUGGAUCUGCGGAUUCCGCUGUCUAUCUC, the self-cleavage is 0.04.
UAACAAGGGGCCACAGCAGAAGCGUUCGCGUCGCAGCCCCUGUCAGAUCCUGGUGGAUCUGCGAAUUCUGCUGUAUAUCUC: the self-cleavage came out at 0.23.
Consider UAACAAGGGGCCACAGCAGAAGCGUUCACGUCGCAGCCCCUGUCUGAUUCUGGUGAAUCUGCGAAUUCCGCUGUAUAUCUC, for which the self-cleavage was determined as 0.2.
For UAACAAGGGGCCACAGAAGAUGCGUUCACGUCGCAGCCCCCGUCAGAUUCGGGUGAAUCUGCGAUUUCUGCUGUAUACCUC the value was 0.06.
For UAACAAGGGGCCACAGCAGAAGGGUUCAUGUCGCAGCCCCUGUCGGAUUCUGGUGAGUCUGCGAAUUCAGCUGUAUAUCUC the value was 0.07.
Next, UAACAAGGGGCCACAGCAGAAGCGUUCUCGGCGCACCCCCUGACAGAUUCUGGUGAAUCUGCGAAUUCUGCUGCAUGUCUC: 0.04; UAACAAGGGGACACAGCAGAAGUGUUCACUUCGCAGCCCCUGUCGGAUUCUGGUGAAUCUGCGAAUACUGCUGAAUAUCUC: 0.02; UAACAAGGGGCCACAGCAGAAGUGUUCACGUCGCAGCCCCUGUCAGAUUCUGGUGAGUCUGCGAAUUCUGCUGUAUAUCUC: 0.21.
As for UAACAAGGGGCCACAGCAGAAGCGUUCGCGUCGCAGCCCCUGUCAGGUUCUGGUGAAUCUGCGAAUUCUGCUGUUUACCUC, the self-cleavage was determined as 0.11.
UAACAAGGGGCCAAAGCAGAAGUGUUCACGUCGGAGCCCCUGUCAGAAUCUGGUGAAUCUGCGGAUUCUGCUGUAUAUCUC: the self-cleavage is 0.04.
Regarding UAACAAGGGGCAAAAGCAGAAGCGUUCACGUCGCAGCACCUGUCAGAUUCUGGUGAAUCUGCGAAUUCUGCUGUAUAUCUC, the self-cleavage is 0.26.
For UAACAAGGGGCCACAGCAGAAGCGUUCGCGUCGCAGCCCCUGCCAGAUUCUGGUGAAUCUGCGAGCUCUGCUGUAUAUCUC the value was 0.15; for UAACAAGGGGCCACAGCAGAAGCGUUCAGGACGCAGCCCCUGUCAGAUUCUGGAGAUUCUGCGAAUUCUGCUGUAUAUCUC, 0.32; for UAACAAGGGGCCACAGCAGAAGCGUUCACGUCGCGGCCCCUGUCAGAUCCUGGUGAGUCUGCGAAUUCCGCUGUAUAUCUC, 0.13.
With UAACAAGGGGCCACAGCAGAAGCGUUCACGUCGCCGCCCCUGUCAGAUUCCGGUGAAUCUGCGAAUUCUGCUGUAUAUCUC, the self-cleavage amounted to 0.44.
For UAACAAGGGGUCACAGCAGAAGCGUCCACGUCGCAGCCCCCGUCAGAUUCUGGUAAAACUGCGAAUUCUGCUGUAUAUCUC the value was 0.05; for UAACAAGGGGACUCAGCAGAAGCGUUCACGUCGCAGCCCCUGUCAGAUUCUGGUGAAUCUGCGAAUUCUGCCGUAUAUCUC, 0.61; for UAACAAGGGGCCACAGCAGAGGCGUUCACGUCGCAGCCCCUGUCAGAUUCUGGUGAAUCUGCGAAUUCAGCUGUAUAUCUC, 0.23.
Regarding UAACAAGGGGCCACAGCAGAAGCGUUCACGUCGCAGUCCCUGUCAGAUUCUGGUGAAUCUGCGUAUCCUGCAGUAUAUCUC, the self-cleavage worked out at 0.13.
Regarding UAACAAGGGGCCACAGCAGAAGCGUUCACGUCGCCGCCCCUGUCAGAUUCUGGUGAAUCUGCAAGUUCUGCUGUAUAUCUC, the self-cleavage was 0.08.
As to UAACAAGGGGCCACAGCAGAAGCGUUCACGUCGCAGCCCCUGUCAGAUUCUGGUGAGUCUGCGGAUUCUGCUGUAUAUCUC, the self-cleavage came out at 0.16.
Take UAACAAGGGGCCACAGCAGAAGCGUUCACGUCGCGGCCCAUGUCAGAUUCUGGUGAAUCUGCGAAUUCUGCUGUAUAACUC: the self-cleavage is 0.38.
Consider UAACAAGGGGCUACAGCAGAAGCGUUCACGUCGCAGCCCCUGCCAGAUUCUUGUGAAUCCGCGAAUUCUGCUGUAUACCUC, for which the self-cleavage came out at 0.06.

The values are drawn from the RNAGym collection of RNA variant scans (doi:10.1093/nar/gkz1192).
